B1: RON-e07h68 humanized 11H09 SMIP (e01h6 VL/e01h8 VH) (Fc fusion)
chain: AIQLTQSPSSLSASVGDRVTITCRASQDIGSSLSWLQQKPGKAPKRLIYSTSSLDSGVPSRFSGSGSGTDFTLTISSLQPEDFATYYCLQYASSPWTFGQGTKVEIKGGGGSGGGGSGGGGSGGGGSQVQLVQSGAEVKKPGASVKVSCKASGYTFTSYWIHWVRQAPGQGLEWIGYIYPTTGYTESNQKFKDRVTMTRDTSISTAYMELSRLRSDDTAVYYCFLLRPWYFDVWGQGTTVTVSSS[human IgG1 Fc with changes not written out]
notes: Form without leader (97 has the leader, 99 lacks the terminal lysine)
B2: RON-e08h78 humanized 11H09 SMIP (e01h7 VL/e01h8 VH) (Fc fusion)
chain: DIQMTQSPSSLSASVGDRVTITCRASQDIGSSLSWLQQKPGKAPKRLIYSTSSLDSGVPSRFSGSGSGTDYTLTISSLQPEDFATYYCLQYASSPWTFGQGTKVEIKGGGGSGGGGSGGGGSGGGGSQVQLVQSGAEVKKPGASVKVSCKASGYTFTSYWIHWVRQAPGQGLEWIGYIYPTTGYTESNQKFKDRVTMTRDTSISTAYMELSRLRSDDTAVYYCFLLRPWYFDVWGQGTTVTVSSS[human IgG1 Fc with changes not written out]
notes: Form without leader
B3: RON-e09h69 humanized 11H09 SMIP (e01h6 VL/e01h9 VH) (Fc fusion)
chain: AIQLTQSPSSLSASVGDRVTITCRASQDIGSSLSWLQQKPGKAPKRLIYSTSSLDSGVPSRFSGSGSGTDFTLTISSLQPEDFATYYCLQYASSPWTFGQGTKVEIKGGGGSGGGGSGGGGSGGGGSQVQLVQSGAEVKKPGASVKVSCKASGYTFTSYWIHWVRQATGQGLEWIGYIYPTTGYTESNQKFKDRVTMTRNTSISTAYMELSSLRSEDTAVYYCFLLRPWYFDVWGQGTTVTVSSS[human IgG1 Fc with changes not written out]
notes: Form without leader
B4: RON-e10h79 humanized 11H09 SMIP (e01h7 VL/e01h9 VH) (Fc fusion)
chain: DIQMTQSPSSLSASVGDRVTITCRASQDIGSSLSWLQQKPGKAPKRLIYSTSSLDSGVPSRFSGSGSGTDYTLTISSLQPEDFATYYCLQYASSPWTFGQGTKVEIKGGGGSGGGGSGGGGSGGGGSQVQLVQSGAEVKKPGASVKVSCKASGYTFTSYWIHWVRQATGQGLEWIGYIYPTTGYTESNQKFKDRVTMTRNTSISTAYMELSSLRSEDTAVYYCFLLRPWYFDVWGQGTTVTVSSS[human IgG1 Fc with changes not written out]
notes: Form without leader
B5: RON-e11h60 humanized 11H09 SMIP (e01h6 VL/e01h0 VH) (Fc fusion)
chain: AIQLTQSPSSLSASVGDRVTITCRASQDIGSSLSWLQQKPGKAPKRLIYSTSSLDSGVPSRFSGSGSGTDFTLTISSLQPEDFATYYCLQYASSPWTFGQGTKVEIKGGGGSGGGGSGGGGSGGGGSQVQLVQSGAEVKKPGASVKVSCKASGYTFTSYWIHWVRQAPGQGLEWIGYIYPTTGYTESNQKFKDRVTMTRDTSTSTVYMELSSLRSEDTAVYYCFLLRPWYFDVWGQGTTVTVSSS[human IgG1 Fc with changes not written out]
notes: Form without leader
B6: RON-e12h70 humanized 11H09 SMIP (e01h7 VL/e01h0 VH) (Fc fusion)
chain: DIQMTQSPSSLSASVGDRVTITCRASQDIGSSLSWLQQKPGKAPKRLIYSTSSLDSGVPSRFSGSGSGTDYTLTISSLQPEDFATYYCLQYASSPWTFGQGTKVEIKGGGGSGGGGSGGGGSGGGGSQVQLVQSGAEVKKPGASVKVSCKASGYTFTSYWIHWVRQAPGQGLEWIGYIYPTTGYTESNQKFKDRVTMTRDTSTSTVYMELSSLRSEDTAVYYCFLLRPWYFDVWGQGTTVTVSSS[human IgG1 Fc with changes not written out]
notes: Form without leader
B7: RON-f07h24 humanized 4C04 SMIP (f01h2 VL/f01h4 VH) (Fc fusion)
chain: DIQMTQSPSSLSASVGDRVTITCLASQTIGTWLAWYQQKPGKAPKLLIYAATSLADGVPSRFSGSGSGTDFTLTISSLQPEDFATYYCQQLYNTPWTFGGGTKVEIKGGGGSGGGGSGGGGSGGGGSEVQLVQSGAEVKKPGATVKISCKVSDYTLTDFYMNWVQQAPGKGLEWIGRIYPGTDKTRYNEKFRDRVTITADTSTDTAYMELSSLRSEDTAVYYCARSAYYGNYVAMDYWGQGTTVTVSSS[human IgG1 Fc with changes not written out]
notes: Form without leader
B8: RON-f08h25 humanized 4C04 SMIP (f01h2 VL/f01H5 VH) (Fc fusion)
chain: DIQMTQSPSSLSASVGDRVTITCLASQTIGTWLAWYQQKPGKAPKLLIYAATSLADGVPSRFSGSGSGTDFTLTISSLQPEDFATYYCQQLYNTPWTFGGGTKVEIKGGGGSGGGGSGGGGSGGGGSQVQLVQSGAEVKKPGSSVKVSCKASDYTLTDFYMNWVRQAPGQGLEWIGRIYPGTDKTRYNEKFRDRVTITADKSTSTAYMELSSLRSEDTAVYYCARSAYYGNYVAMDYWGQGTTVTVSSS[human IgG1 Fc with changes not written out]
notes: Form without leader
B9: RON-f02 4C04 murine SMIP (Fc fusion)
chain: DIQMTQSPASQSASLGESVTITCLASQTIGTWLAWYQQKPGKSPQLLIYAATSLADGVPSRFSASGSGTKFSFKIDSLQSEDFVSYYCQQLYNTPWTFGGGTKLEIKGGGGSGGGGSGGGGSQIQLQQSGPELVKPGTSVKISCKASDYTLTDFYMNWVRQKPGQGLEWIGRIYPGTDKTRYNEKFRDKAILTVDTSSSTAYMQLSSLTSEDTAVYFCARSAYYGNYVAMDYWGQGTSVTVSSS[human IgG1 Fc with changes not written out]
notes: also called RON-f02 SMIP
B10: SCORPION protein S0266 (anti-RON x anti-CD3) (bispecific antibody)
chain: DIQMTQSPASQSASLGESVTITCLASQTIGTWLAWYQQKPGKSPQLLIYAATSLADGVPSRFSASGSGTKFSFKIDSLQSEDFVSYYCQQLYNTPWTFGGGTKLEIKGGGGSGGGGSGGGGSQIQLQQSGPELVKPGTSVKISCKASDYTLTDFYMNWVRQKPGQGLEWIGRIYPGTDKTRYNEKFRDKAILTVDTSSSTAYMQLSSLTSEDTAVYFCARSAYYGNYVAMDYWGQGTSVTVSSS[human IgG1 Fc with changes not written out]RHNNSSLNTGTQMAGHSPNSEVQLQQSGPELVKPGASMKISCKASGYSFTGYIVNWLKQSHGKNLEWIGLINPYKGLTTYNQKFKGKATLTVDKSSSTAYMELLSLTSEDSAVYYCARSGYYGDSDWYFDVWGAGTTVTVSSGGGGSGGGGSGGGGSAQDIQMTQTTSSLSASLGDRVTISCRASQDIRNYLNWYQQKPDGTVKLLIYYTSRLHSGVPSRFSGSGSGTDYSLTIANLQPEDIATYFCQQGNTLPWTFGGGTKLVTKR

How the values were obtained:
[1] = target: T1, human RON (recepteur d'origine Nantaise, MST1R), full length on cells (human, UniProt Q04912 25-1400); assay: flow cytometry, MDA-MB-453 cells, various concentrations; binding activity comparable to murine RON-e02
T1 construct: Over-expressed on transfected NIH/3T3 cells, or native on BxPC-3 and MDA-MB-453 cells; also called native human RON
Procedure: (§1) Human pancreatic adenocarcinoma BxPC-3 cells (ATCC) were dissociated with trypsin and human breast metastatic carcinoma MDA-MB-453 cells (ATCC) were harvested manually with a rubber cell scraper. Cells were stained at 3×10⁵ cells/sample on ice with purified molecules diluted in Staining Buffer. SMIPs and Interceptors were detected with Alexa Fluor 488-conjugated goat anti-human IgG (Invitrogen). Samples were analyzed on a BD FACSCalibur flow cytometer fitted with an HTS using PlateManager and CellQuest Pro software.
(§2) Additionally, RON-e (FIG. 7a) and RON-f (FIG. 7B) humanized SMIPs bind native human RON on the surface of MDA-MB-453 cells. Various concentrations of humanized RON-e SMIP constructs RON-e07h68, RON-e08h78, RON-e09h69, RON-e10h79, RON-e11h60, RON-e12h70 and RON-f SMIP SMIP constructs RON-f07h24 and RON-f08h25 were incubated with MDA-MB_{—}453 cells and compared with murine RON-e02 and RON-f02 controls, respectively.

[2] = target: T1, human RON (recepteur d'origine …); assay: flow cytometry, MDA-MB-453 cells, various concentrations; binding activity comparable to murine RON-f02
Procedure: as §1, §2

[3] = target: T2, RON Sema-PSI-AFH protein (human, UniProt Q04912 25-568); assay: SPR (Biacore T100); SMIP captured by immobilized anti-human Fc, soluble RON Sema-PSI-AFH flowed over
T2 construct: Produced in CHOK1SV cells; also called soluble RON Sema-PSI-AFH; not shown: c-terminal tag including avidin, 3xFLAG and 6x histidine tags
T2 chain: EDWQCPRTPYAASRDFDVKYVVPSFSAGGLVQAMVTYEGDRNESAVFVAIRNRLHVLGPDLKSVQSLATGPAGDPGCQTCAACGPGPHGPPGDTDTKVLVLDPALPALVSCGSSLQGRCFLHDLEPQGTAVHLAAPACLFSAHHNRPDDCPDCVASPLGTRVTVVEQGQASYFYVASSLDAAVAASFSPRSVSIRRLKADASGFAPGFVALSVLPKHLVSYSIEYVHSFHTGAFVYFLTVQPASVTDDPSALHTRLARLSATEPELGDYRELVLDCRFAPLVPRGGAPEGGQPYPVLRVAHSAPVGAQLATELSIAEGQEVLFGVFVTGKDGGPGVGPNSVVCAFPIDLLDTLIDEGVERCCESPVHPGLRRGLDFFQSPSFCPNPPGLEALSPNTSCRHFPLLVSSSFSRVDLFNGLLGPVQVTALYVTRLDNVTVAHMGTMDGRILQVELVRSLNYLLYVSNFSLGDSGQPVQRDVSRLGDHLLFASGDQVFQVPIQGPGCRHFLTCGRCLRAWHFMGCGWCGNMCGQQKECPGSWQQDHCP
Procedure: The binding kinetics of RON-f murine antibody, SMIP and Interceptor to soluble RON Sema-PSI-AFH were determined using a Biacore T100 (GE Healthcare, Piscataway, N.J.). Anti-RON murine antibody was captured using immobilized anti-mouse Fc polyclonal antibody while the SMIP and Interceptor were captured by anti-human Fc monoclonal antibody. The capture antibodies, both from GE Healthcare, were covalently conjugated to a carboxylmethyl dextran surface (CM4) via amines using N-ethyl-N′-(3-dimethylaminopropyl)-carbodiimide hydrochloride and N-hydroxysuccinimide. The unoccupied sites of the activated surface were blocked by ethanolamine. […] During each cycle, a single concentration of soluble RON Sema-PSI-AFH was injected and then allowed to dissociate. At the end of each cycle, the surface was regenerated gently using 3M MgCl₂ which dissociates protein bound to the capture antibodies. Signal associated with binding to the reference cell was used to subtract for bulk refractive changes and blank (buffer-only) injections were used to correct for drift and system noise.
Kinetic parameters and affinities were determined using BIAevaluation software. The kₐ (M⁻¹s⁻¹) and kd (s⁻¹) rates of the interaction were used to calculate the affinity constant, KD (M), of the antibody/receptor interaction. The KD is defined as the ratio of the kd and kₐ constants (kd/kₐ). The RON-f01 murine antibody was tested in a single experiment while the RON-f02 SMIP and RON-f03 Interceptor molecules were each tested in three independent experiments. RON-f molecules were captured on a sensor chip with immobilized anti-Fc while soluble RON Sema-PSI-AFH protein was flowed over the surface at varying concentrations.

[4] = target: T1, human RON (recepteur d'origine …); assay: flow cytometry, MDA-MB-453 (RON+) cells, 100 nM to 0.1 nM
Procedure: The cells were washed three times and then incubated with goat anti-human IgG-FITC (1:200 dilution) for another 30 minutes at 4° C. The cells were then washed again three times, fixed in 1% paraformaldehyde and read on a FACS-Calibur instrument.

Binder | binding result [1] | further results
B1 | binds | 
B2 | binds | 
B3 | binds | 
B4 | binds | 
B5 | binds | 
B6 | binds | 
B7 |  | binding result [2]: binds
B8 |  | binding result [2]: binds
B9 |  | Kd [3]: 0.115 nM; koff [3]: 0.0001 s⁻¹; kon [3]: 866000 M⁻¹ s⁻¹
B10 |  | binding result [4]: binds

Reference: patent publication US20130089554A1 (EMERGENT PRODUCT DEVELOPMENT SEATTLE, published 2013)
